{"source": "paper PMC4336329", "about": "(PLoS ONE, 2015)", "note": "About 14,000 (4.5%) of roughly 310,000 compounds showed an effect of 50% or more. Effects have a minus sign here. The list shows a part of the results.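 Also: peak tail current of the secondary pulse compared with the same well before compound.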"}
{"biological_target": "human ether-à-go-go-related gene (hERG) potassium channel (human, UniProt Q12809)", "sequence (Q12809 whole entry, looked up)": "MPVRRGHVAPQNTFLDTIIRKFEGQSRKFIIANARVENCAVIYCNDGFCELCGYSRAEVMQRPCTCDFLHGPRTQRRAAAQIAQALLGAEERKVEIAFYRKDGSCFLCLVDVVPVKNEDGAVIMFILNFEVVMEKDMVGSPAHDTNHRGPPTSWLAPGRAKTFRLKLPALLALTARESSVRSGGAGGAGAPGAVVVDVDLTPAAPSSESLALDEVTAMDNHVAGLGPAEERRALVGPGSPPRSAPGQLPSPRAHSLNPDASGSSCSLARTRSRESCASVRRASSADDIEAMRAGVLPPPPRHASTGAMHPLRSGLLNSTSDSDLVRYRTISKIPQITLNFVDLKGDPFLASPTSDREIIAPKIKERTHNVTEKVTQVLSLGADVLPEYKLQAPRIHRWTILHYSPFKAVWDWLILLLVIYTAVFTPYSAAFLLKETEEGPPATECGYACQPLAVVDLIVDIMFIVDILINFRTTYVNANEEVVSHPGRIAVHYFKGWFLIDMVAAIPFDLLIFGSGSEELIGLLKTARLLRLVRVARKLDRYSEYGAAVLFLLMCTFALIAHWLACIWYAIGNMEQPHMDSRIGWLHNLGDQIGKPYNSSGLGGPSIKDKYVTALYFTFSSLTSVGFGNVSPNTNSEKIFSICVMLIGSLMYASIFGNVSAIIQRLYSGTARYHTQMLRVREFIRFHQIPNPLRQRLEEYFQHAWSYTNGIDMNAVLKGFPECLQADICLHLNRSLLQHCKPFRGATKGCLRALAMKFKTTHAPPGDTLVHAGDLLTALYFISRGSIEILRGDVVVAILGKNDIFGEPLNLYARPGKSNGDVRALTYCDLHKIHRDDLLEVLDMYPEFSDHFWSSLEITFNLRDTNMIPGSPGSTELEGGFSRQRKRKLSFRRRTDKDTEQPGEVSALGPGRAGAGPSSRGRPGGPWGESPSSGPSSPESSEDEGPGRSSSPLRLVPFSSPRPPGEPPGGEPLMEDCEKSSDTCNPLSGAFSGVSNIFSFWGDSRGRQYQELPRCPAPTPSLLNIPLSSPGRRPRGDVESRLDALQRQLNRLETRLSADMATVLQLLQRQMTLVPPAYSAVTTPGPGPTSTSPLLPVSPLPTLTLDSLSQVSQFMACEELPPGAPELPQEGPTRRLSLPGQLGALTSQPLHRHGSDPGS", "assay": "primary screen, population patch clamp on CHO cells stably expressing hERG", "units": {"hERG current change (%, negative = inhibition) at 10uM": "%"}}
{"molecule": "COC(=O)c1cc2n(n1)CCN(Cc1ccccc1Cl)C2=O", "hERG current change (%, negative = inhibition) at 10uM": -0.101}
{"molecule": "CCn1c2ccc(F)cc2c2nc3ccccc3nc21", "hERG current change (%, negative = inhibition) at 10uM": 3.44}
{"molecule": "CCC1(c2ccccc2)NC(=O)N(CC(=O)N(C)Cc2ccccc2)C1=O", "note": "(centres unmarked)", "hERG current change (%, negative = inhibition) at 10uM": 14.8}
{"molecule": "S=C(Nc1cc(Cl)cc(Cl)c1)N1CCN(c2ccccn2)CC1", "hERG current change (%, negative = inhibition) at 10uM": 14.5}
{"molecule": "c1cncc(CNc2nc(N3CCOCC3)nc(N3CCOCC3)n2)c1", "hERG current change (%, negative = inhibition) at 10uM": 7.09}
{"molecule": "COC(=O)c1c(-c2cccnc2)csc1NC(=O)c1cc(C)on1", "hERG current change (%, negative = inhibition) at 10uM": 40.2}
{"molecule": "CCN(CC)S(=O)(=O)c1ccc(Cl)c(OC)c1", "hERG current change (%, negative = inhibition) at 10uM": -4.71}
{"molecule": "COc1ccc(CNC(=O)C(=O)NCC2OCCN2S(=O)(=O)c2ccc(OC)c(OC)c2)cc1", "note": "(centres unmarked)", "hERG current change (%, negative = inhibition) at 10uM": 7.3}
{"molecule": "CCCCSc1nc2c(cnn2-c2ccc(Cl)cc2)c(=O)[nH]1", "hERG current change (%, negative = inhibition) at 10uM": 15.5}
{"molecule": "CC1CCN(S(=O)(=O)c2ccc3nc(N4CCN(c5ccccc5)CC4)ccc3c2)CC1", "hERG current change (%, negative = inhibition) at 10uM": 13.2}
{"molecule": "CCn1c2ccccc2c2cc(NC(=O)c3ccccc3[N+](=O)[O-])ccc21", "hERG current change (%, negative = inhibition) at 10uM": 14}
{"molecule": "COc1ccc(Cc2nnc(NC(=O)c3ccccc3F)s2)cc1OC", "hERG current change (%, negative = inhibition) at 10uM": 9.86}
{"molecule": "Cc1ccc(S(=O)(=O)N[C@H](C(=O)OCC(=O)NC(=O)Nc2ccc3c(c2)OCCO3)C(C)C)cc1", "hERG current change (%, negative = inhibition) at 10uM": 8.74}
{"molecule": "CCOc1ccc(S(=O)(=O)NCc2cccnc2)cc1C(C)C", "hERG current change (%, negative = inhibition) at 10uM": 11}
{"molecule": "Cc1noc(C)c1C(=O)N1CCC(C(=O)c2ccc(F)cc2F)CC1", "hERG current change (%, negative = inhibition) at 10uM": 10.9}
{"molecule": "COc1ccccc1NC(=O)c1ccc(COc2ccccc2Br)o1", "hERG current change (%, negative = inhibition) at 10uM": -19.6}
{"molecule": "C=CCn1cc(C(=O)NCc2cccnc2)c(=O)c2cc(S(=O)(=O)N(CC)CC)ccc21", "hERG current change (%, negative = inhibition) at 10uM": -74.4}
{"molecule": "O=[N+]([O-])c1ccc2nc(SCc3ccccc3Cl)sc2c1", "hERG current change (%, negative = inhibition) at 10uM": -2.18}
{"molecule": "Cc1cc(C)cc(CSCC(=O)NN=C2CCCCCC2)c1", "hERG current change (%, negative = inhibition) at 10uM": -44.7}
{"molecule": "CC(=O)NS(=O)(=O)c1ccc(NS(=O)(=O)c2ccccc2[N+](=O)[O-])cc1", "hERG current change (%, negative = inhibition) at 10uM": 5.18}
{"molecule": "Cc1ccc(NC(=S)N(Cc2ccc(Br)cc2)Cc2ccc(C(=O)O)cc2)cc1C", "hERG current change (%, negative = inhibition) at 10uM": 32}
{"molecule": "CCCC(=O)c1c(C)c2ccccc2n1C", "hERG current change (%, negative = inhibition) at 10uM": 5.38}
{"molecule": "CCn1c(Cc2cccc3ccccc23)nnc1SCC(=O)Nc1nccs1", "hERG current change (%, negative = inhibition) at 10uM": 4.13}
{"molecule": "O=C1Nc2ccccc2O/C1=C\\c1ccccc1Br", "hERG current change (%, negative = inhibition) at 10uM": 4.08}
{"molecule": "Cc1ccc(Cl)cc1NC(=O)C1CC1c1ccccc1", "note": "(centres unmarked)", "hERG current change (%, negative = inhibition) at 10uM": 5.23}
{"molecule": "Cc1ccc(NC(=O)Cn2cccc2)c(C)c1", "hERG current change (%, negative = inhibition) at 10uM": 2.32}
{"molecule": "CC(C)(C)NC(=O)NC(=O)COC(=O)c1c(F)cccc1Cl", "hERG current change (%, negative = inhibition) at 10uM": 34.1}
{"molecule": "CC(C)CCNC(=S)Nc1ccc(F)cc1", "hERG current change (%, negative = inhibition) at 10uM": 8.56}
{"molecule": "CCCCC(CC)CNC(=O)c1[nH]c(C)c(C(C)=O)c1C", "note": "(centres unmarked)", "hERG current change (%, negative = inhibition) at 10uM": -3.05}
{"molecule": "CCC(CC)C1=NN2C(=N)/C(=C/c3ccc(OC(=O)c4ccco4)cc3)C(=O)N=C2S1", "hERG current change (%, negative = inhibition) at 10uM": 20.1}
{"molecule": "CS(=O)(=O)c1ccc(CNC(=O)C2(C(F)(F)F)C/C(=C\\Cc3ccccc3)CCCO2)cc1", "note": "(centres unmarked)", "hERG current change (%, negative = inhibition) at 10uM": -11.6}
{"molecule": "CN(C)S(=O)(=O)c1cccc(NC(=O)COC(=O)c2cccc(S(=O)(=O)N3CCc4ccccc4C3)c2)c1", "hERG current change (%, negative = inhibition) at 10uM": 10.2}
{"molecule": "COCCN(Cc1ccccc1)C(=O)c1cccc(S(=O)(=O)N2CCN(c3ccc(F)cc3)CC2)c1", "hERG current change (%, negative = inhibition) at 10uM": -64.6}
{"molecule": "COc1ccccc1C(=O)C1CCCN(C(=O)c2cnn(C(C)C)c2)C1", "note": "(centres unmarked)", "hERG current change (%, negative = inhibition) at 10uM": 5.63}
{"molecule": "O=C(Nc1ccccc1O)c1cccc(S(=O)(=O)N2CCOCC2)c1", "hERG current change (%, negative = inhibition) at 10uM": 17.7}
{"molecule": "S=C(NCc1cccnc1)Nc1cccc(Cl)c1", "hERG current change (%, negative = inhibition) at 10uM": -9.78}
{"molecule": "Cc1cccc2c1N(C(=O)CN1C(=O)c3ccccc3C1=O)C(C)(C)c1ssc(=S)c1-2", "hERG current change (%, negative = inhibition) at 10uM": 14.5}
{"molecule": "COc1ccc(-c2cc(=O)oc3c(C)c(OC(C)C(=O)Nc4ccc(CN5CCOCC5)cc4)ccc23)cc1", "note": "(centres unmarked)", "hERG current change (%, negative = inhibition) at 10uM": -5.78}
{"molecule": "COc1cccc(Nc2nc(-c3ccccc3O)nc3ccccc23)c1", "hERG current change (%, negative = inhibition) at 10uM": 20.5}
{"molecule": "Cn1nnnc1SCCNC(=O)C1CCC(=O)N(CCc2ccccc2)C1", "note": "(centres unmarked)", "hERG current change (%, negative = inhibition) at 10uM": 5.67}
{"molecule": "COc1ccc(Cl)cc1C(=O)Nc1ccc(Br)c(C)n1", "hERG current change (%, negative = inhibition) at 10uM": 13.2}
{"molecule": "Cc1ccc2c(cnn2C(=O)CCCC(=O)NCc2ccc(Cl)cc2)c1", "hERG current change (%, negative = inhibition) at 10uM": -31.8}
{"molecule": "CCOC(=O)N1CCN(S(=O)(=O)c2ccc(Br)s2)CC1", "hERG current change (%, negative = inhibition) at 10uM": -9.22}
{"molecule": "CC1(c2nnc(-c3ccc(F)cc3)o2)CC(c2ccncc2)=NO1", "note": "(centres unmarked)", "hERG current change (%, negative = inhibition) at 10uM": -8.44}
{"molecule": "CCOC(=O)CN1C(=O)COc2ccc(Cl)cc21", "hERG current change (%, negative = inhibition) at 10uM": 19.2}
{"molecule": "CCOP(=O)(OCC)/C(=N/OC(=O)c1ccccc1C)C(N)=O", "hERG current change (%, negative = inhibition) at 10uM": -1.22}
{"molecule": "COc1cccc(-c2cc(C(F)(F)F)c(C#N)c(=O)[nH]2)c1", "hERG current change (%, negative = inhibition) at 10uM": 21}
{"molecule": "CCOC(=O)/C(C(N)=NCCO)=C(/O)c1ccccc1", "hERG current change (%, negative = inhibition) at 10uM": 4.47}
{"molecule": "COc1ccc(CN(Cc2cccn2C)S(=O)(=O)c2ccc(F)cc2)cc1", "hERG current change (%, negative = inhibition) at 10uM": -2.89}
{"molecule": "O=C(O)C1C2C=CC3(CN(CC(O)COc4ccccc4)C(=O)C13)O2", "note": "(centres unmarked)", "hERG current change (%, negative = inhibition) at 10uM": 17.4}
{"molecule": "O=C(Nc1cc(S(=O)(=O)N2CCOCC2)ccc1N1CCOCC1)c1cc2c(s1)CCC2", "hERG current change (%, negative = inhibition) at 10uM": -5.63}
{"molecule": "CCOc1ccc2[nH]c(=O)c(CN(CCO)Cc3nnnn3CCc3ccccc3)cc2c1", "hERG current change (%, negative = inhibition) at 10uM": -27.9}
{"molecule": "CCOCC(=O)Nc1ccccc1C(=O)N1CCOCC1", "hERG current change (%, negative = inhibition) at 10uM": -0.166}
{"molecule": "O=C(O)c1cccnc1Sc1ccccc1Cl", "hERG current change (%, negative = inhibition) at 10uM": 17.1}
{"molecule": "O=C(CSc1nc(-c2ccc(Cl)cc2)cs1)Nc1cccc([N+](=O)[O-])c1", "hERG current change (%, negative = inhibition) at 10uM": 14.5}
{"molecule": "CCOC(=O)N1CCC(N2C(=O)c3ccc(C(=O)NCc4ccco4)cc3C2=O)CC1", "hERG current change (%, negative = inhibition) at 10uM": -9.63}
